Assay results as given in the supplement of paper PMC3334620.
Whole data set: some 33,000 sequences, median “E-score (-0.5 to 0.5)” near -0.043, cut for the highest 2% near 0.37. This is one part of the list.

Molecular target: T1, Upc2 (UniProt Q12151)
T1 sequence: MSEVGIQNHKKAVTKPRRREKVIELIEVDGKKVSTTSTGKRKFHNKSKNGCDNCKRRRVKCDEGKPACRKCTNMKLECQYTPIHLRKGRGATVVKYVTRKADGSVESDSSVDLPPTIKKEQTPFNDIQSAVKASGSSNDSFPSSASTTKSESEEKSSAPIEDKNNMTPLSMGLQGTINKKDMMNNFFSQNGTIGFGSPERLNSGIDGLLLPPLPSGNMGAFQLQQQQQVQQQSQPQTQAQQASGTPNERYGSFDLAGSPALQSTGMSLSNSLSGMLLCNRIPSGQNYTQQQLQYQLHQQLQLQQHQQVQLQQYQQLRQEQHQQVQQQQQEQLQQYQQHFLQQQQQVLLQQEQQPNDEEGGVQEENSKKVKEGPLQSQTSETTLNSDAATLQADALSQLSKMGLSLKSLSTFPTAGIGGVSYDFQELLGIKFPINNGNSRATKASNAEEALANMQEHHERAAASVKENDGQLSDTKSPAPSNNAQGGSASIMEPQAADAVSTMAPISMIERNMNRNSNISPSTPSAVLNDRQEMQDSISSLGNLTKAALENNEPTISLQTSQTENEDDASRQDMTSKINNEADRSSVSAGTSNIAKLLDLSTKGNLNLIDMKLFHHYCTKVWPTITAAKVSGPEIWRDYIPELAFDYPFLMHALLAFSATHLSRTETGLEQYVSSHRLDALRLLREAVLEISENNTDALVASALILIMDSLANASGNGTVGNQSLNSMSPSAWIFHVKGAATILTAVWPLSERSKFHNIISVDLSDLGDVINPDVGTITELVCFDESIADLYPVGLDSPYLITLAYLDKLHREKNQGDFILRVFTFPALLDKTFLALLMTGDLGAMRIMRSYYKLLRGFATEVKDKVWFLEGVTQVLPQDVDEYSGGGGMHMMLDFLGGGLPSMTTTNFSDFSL
Assay: PBM E-score (8-mer binding enrichment) (E-score (-0.5 to 0.5)); higher = stronger / more preferred TF binding; most listed sequences are background and not binding sites
Details: protein concentration: 200 nM; construct: GST-full length
How it was run: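 Yeast transcription factors, full-length or as DNA-binding domains, were expressed with a GST tag using PURExpress in vitro transcription/translation. At about 100-200 nM they were applied to universal all-10-mer Agilent arrays, double-stranded by primer extension on fresh or once-stripped slides. Fluorescent anti-GST detected bound protein, and masliner normalised the scans. E-scores for ungapped eight-base words, pooled with reverse complements, came from the Universal PBM Analysis Suite.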

| Sequence | PBM E-score |
| --- | --- |
| AACACATA | 0.102 |
| GTGCCTGA | -0.197 |
| TCAACAAA | -0.0193 |
| ACGCGCAC | 0.0784 |
| GAAGAGCA | -0.32 |
| CAAGAGCA | -0.269 |
| ATCCACCA | -0.176 |
| CCACGCAA | -0.0859 |
| CTTGCTTA | -0.255 |
| CCACCGAC | -0.23 |
| AAAGAGAT | 0.0315 |
| TACAGATA | 0.0525 |
| AATCCTGC | -0.122 |
| ACAACGGT | 0.115 |
| ACACGGTA | -0.00396 |
| AAACGATG | 0.458 |
| TAGCTGCA | -0.103 |
| ATATGGGC | -0.115 |
| GCTCAGAC | -0.0917 |
| AACCCGTT | 0.204 |
| ACTCGAGT | 0.13 |
| CACCCAGC | -0.127 |
| AGAATGAA | 0.0894 |
| TAGTTGGA | -0.109 |
| TCGGCTAA | 0.163 |

| Sequence | PBM E-score |
| --- | --- |
| AGACGGTA | -0.026 |
| GAAGCTCA | -0.213 |
| CGCCTCCC | -0.104 |
| AGGCAGCC | -0.0618 |
| AAAACGGG | 0.255 |
| AATTGGGG | -0.00677 |
| AGATCCTG | -0.161 |
| CAGTACCA | -0.0443 |
| GTTACGCA | 0.183 |
| CCGCATCA | -0.168 |
| CAGTGGAA | -0.306 |
| CCTTAACC | -0.163 |
| CGGATACA | 0.201 |
| AATTGACG | 0.0233 |
| ACGATTAC | 0.303 |
| GATTAGGC | 0.0189 |
| CATGGCCA | -0.34 |
| CCAGAGCA | -0.219 |
| ATGATCGC | -0.023 |
| CCCCTCTC | -0.185 |
| AGCGGGAA | 0.0721 |
| ATGACACA | -0.0132 |
| CTTCCTCA | -0.178 |
| AATTGATA | 0.0661 |
| GCCTGAGA | -0.254 |

| Sequence | PBM E-score |
| --- | --- |
| AAGAACTC | 0.126 |
| ATGTCATG | -0.0317 |
| GCAAGCAC | -0.17 |
| TATACACA | 0.191 |
| CGAGACCA | 0.151 |
| CGTCACAA | 0.0951 |
| ATTCGTAA | 0.399 |
| GATACCGC | -0.0629 |
| ATCATGTA | 0.013 |
| CAGTTAGA | -0.121 |
| CTACAAGC | -0.017 |
| GGTAGCGA | 0.0627 |
| CTCGTTCC | 0.479 |
| ACAAAATG | -0.0712 |
| ATACGCTG | 0.315 |
| ATTCTATA | 0.177 |
| TCCTATCA | -0.224 |
| CATGGGCG | -0.106 |
| CTAAGGTC | -0.109 |
| GGACGAGA | -0.00291 |
| CTACCTAG | -0.225 |
| AAGGTAAT | 0.0547 |
| CGAGGGAC | 0.169 |
| AACTGGCG | -0.217 |
| AATATTTC | 0.178 |

| Sequence | PBM E-score |
| --- | --- |
| AGTTTGCG | 0.0449 |
| TAGGAGCA | -0.304 |
| CTGCCCTA | -0.289 |
| AAGAATGG | -0.163 |
| CGATCGTA | 0.437 |
| GATGTCGA | -0.0548 |
| CTAAGCCC | -0.25 |
| CAATCTCA | -0.0468 |
| AAACCAGT | -0.00579 |
| CGGCCGCA | -0.11 |
| AACTCCAT | -0.187 |
| GCGGTTCC | 0.103 |
| AAACGCGT | 0.343 |
| GCAGCCAC | -0.0673 |
| ATACTCCA | -0.0309 |
| ACCCTGTG | -0.104 |
| CCCGGTTA | 0.115 |
| CGAACTCA | 0.0312 |
| GCACGACA | 0.0592 |
| TCGAGAGA | 0.0401 |
| ACGGAATC | 0.0206 |
| AAAAGTCG | 0.0379 |
| GTGATTAA | -0.147 |
| GATTCTAC | 0.026 |
| CTTTAGTA | -0.0146 |

| Sequence | PBM E-score |
| --- | --- |
| AGCTGTGA | -0.0873 |
| AAGTACTC | 0.173 |
| CAATAGTA | -0.159 |
| AAATCCAG | 0.0971 |
| GTTCGTAA | 0.424 |
| GTTGTCCA | 0.0403 |
| AGAATGAT | -0.0518 |
| AGATTAGC | -0.103 |
| GTGCAGAA | 0.202 |
| AGAGACAG | -0.21 |
| GAGTCCTA | -0.202 |
| ATAGGGTA | 0.138 |
| AACTCCAC | 0.00868 |
| AAGGTCAA | -0.257 |
| GCAGAGCA | -0.151 |
| CTTGCGAC | 0.0211 |
| ATTTGGAA | -0.194 |
| TAATTCCA | 0.0033 |
| CTAGGATC | -0.0545 |
| GACCAGGC | -0.226 |
| ACGCTTAT | 0.00951 |
| CGGCGATC | 0.071 |
| CCGGCAGA | -0.14 |
| GCGCCGGA | -0.0152 |
| GCTTAACA | -0.0625 |

| Sequence | PBM E-score |
| --- | --- |
| CGGCCCCA | -0.152 |
| ATCGAGCC | 0.0281 |
| TCGGTGCA | -0.104 |
| CTCACATA | -0.0801 |
| TAGTGGAA | -0.215 |
| TGAAGGCA | -0.0834 |
| CATGCATA | -0.0583 |
| AAGGGAAG | -0.153 |
| CTTGGTCC | -0.182 |
| CACAACAG | -0.204 |
| AGAATACG | 0.315 |
| GAACACAC | 0.00893 |
| CAGCAGGA | -0.306 |
| AACCGGGA | 0.0691 |
| AAAGGTTC | 0.00774 |
| TCAGTGCA | -0.225 |
| CAATGGTC | -0.0992 |
| CAAATCCG | -0.0244 |
| AAAGCATT | -0.0804 |
| CCATGCAA | -0.14 |
| GCGACTAC | 0.0157 |
| ACAACTCC | -0.117 |
| ACTGGCTG | -0.0756 |
| GGGGGACC | -0.308 |
| CGATCTAA | -0.0262 |

| Sequence | PBM E-score |
| --- | --- |
| AACCCAGT | -0.0129 |
| AAGGTGTA | -0.00282 |
| CACTGCCA | -0.0268 |
| ATCCGGGG | -0.0936 |
| AATTAACA | 0.006 |
| TGGCGACA | 0.0714 |
| TAAAACTA | 0.0863 |
| AGAAGTTC | -0.151 |
| CTATACGC | 0.458 |
| CTGCTTCC | -0.119 |
| GTCGAAAA | 0.145 |
| ATAATGGC | -0.0203 |
| AATGCTCC | -0.293 |
| CAACCTAG | -0.185 |
| AGCCTGGG | -0.139 |
| CAGTCCCA | -0.256 |
| CCAGTTAC | -0.21 |
| ATCCCAGG | -0.338 |
| CCTAAAAA | -0.119 |
| TGGCAAAA | -0.0725 |
| ACAATTAT | 0.146 |
| ATTTGTGG | -0.133 |
